# According to the supplement of paper PMC11417369:
# ± gives the standard deviation of the averaged measurements. The list shows a part of the results.
# System: PfAP2-LT AP2 domain (GST-tagged)
# Assay: gcPBM binding intensity (ln(normalized median fluorescence intensity)); higher = stronger DNA binding
# In short: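 Binding intensity is the highest Masliner-normalised natural-log median intensity over replicate spots in either probe orientation. To obtain it, GST-tagged P. falciparum DNA-binding domains made in E. coli were incubated for 1 h on an Agilent 4 × 180k array of primer-extended double-stranded 36-bp intergenic genomic probes plus negative controls. Detection used Alexa488 anti-GST antibody with scanning at 488 nm.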
row,Sequence,gcPBM binding intensity (ln)
1,CATTATTTACCGCCGTGTACGTAATGAGAAATTAAA [XGTACX_site4662],8.62 ± 0.48
2,TTATTTCAAATTAATTTACACACTTCATACTAAAAG [CACACA_site9039],8.64 ± 0.43
3,TAATAAAAAAAGTGCACACACATAATATTTATATAT [CACACA_site7548],9.14 ± 0.36
4,ACATGTTTTATGTGCACACAAAGTTGTTATGAGGTT [CACACA_site4031],9.72 ± 0.23
5,ATATAATATTTCATGTGGACACATTTTATGATTGTA [XGTACX_site8770],8.85 ± 0.39
6,ACACATATATATTATTATTATATAATATATATATAT [CACACA_negctrl_site1545],8.78 ± 0.32
7,AATCAAAATTAATTAACACACAATTTTAATATTCTT [CACACA_site2063],8.64 ± 0.48
8,ATAGTAAACGAAATAAAAAGATTAGCATAATATCCT [CACACA_negctrl_site1730],8.88 ± 0.46
9,ATTGTTTATATTGATTGTACTCATTTTTTTTTTATT [XGTACX_site1946],9.03 ± 0.38
10,ATATATTATATATATTACAACTTAAGAATATACATA [TGCATGCA_negctrl_site371],8.45 ± 0.3
11,TCCTGTGATTATATAACACACATTATTGCTTATAAG [CACACA_site1518],8.93 ± 0.31
12,ATTATATATATATATACACACACACCCTAAAAATAT [CACACA_site8463],9.8 ± 0.014
13,ATATATTGAAAAAAATGTACGTATTTTTTTATGTTA [XGTACX_site4654],8.63 ± 0.36
14,TAAGCTTGTAACAGTTTACACACTAATATTTATAAA [CACACA_site3907],8.57 ± 0.39
15,AATAAATATATTACATATATGTGTAGTATTTTTTTA [TGCATGCA_negctrl_site268],8.61 ± 0.4
16,TTATTAAATTTTTTTTGTACTTATATATATATATAT [XGTACX_site2443],8.85 ± 0.52
17,ATTATTATATAGTGTGCATGCAATATTAATAAAACC [TGCATGCA_site245],9.36 ± 0.23
18,TATGAATGTATATGTTGTACATATAAATATTTATAT [XGTACX_site1146],8.81 ± 0.45
19,GTTGTTATATAAAATTGTACATAAAAAACAAAATAT [XGTACX_site5313],8.69 ± 0.42

row,Sequence,gcPBM binding intensity (ln)
1,TTTTCTTTCTTTCAAACACACATTAATTTTATTCAT [CACACA_site2734],8.75 ± 0.58
2,TAAAATTATTAATGAGTGCATTATAAAATCTATATA [GTGCAC_site9493],8.38 ± 0.46
3,ATAAATGGCTATAGCATATTGTATATGTGATTATAA [CACACA_negctrl_site948],8.9 ± 0.49
4,ATTATACACCCGCGCACACACAACAAAAAAAAAAAA [CACACA_site5871],9.67 ± 0.61
5,ATGCAATTATATAGTAGTACAAATTTATAAATATAC [XGTACX_site4869],8.94 ± 0.37
6,TCATATATTATATATTGTACAAAATAATAAGTATTT [XGTACX_site3987],8.58 ± 0.47
7,ATAATTGTTTAAAGGTGTACAATACATATATTTTAA [XGTACX_site3648],8.64 ± 0.5
8,ATATATATATATATGGGTACGTAAAAATATAATAAA [XGTACX_site4036],9.12 ± 0.46
9,ATGAAAATATTTAAAAGTACAGAAATATAAAACCTT [XGTACX_site403],8.74 ± 0.4
10,CACAAATATACAAATACACACAAATATACACATATA [CACACA_site7176],9.4 ± 0.38
11,TATAAAATATAAATAAATAAATAAATATATATATAT [TGCATGCA_negctrl_site448],8.71 ± 0.42
12,AAAATATTTATCATTTGTACTTAGATGTAAACTTGA [XGTACX_site1778],8.46 ± 0.42
13,TATTTTATACACTTGCTAAAACATTAACACATATGT [CACACA_negctrl_site1818],8.87 ± 0.64
14,AAAAAACAAAAACACACGCACACAAAAAAAAAAAAA [CACACA_site802],9.4 ± 0.33
15,TATATATATATATATTGTACTAAATCATTTAAATGA [XGTACX_site8016],8.89 ± 0.16
16,ACCTATATAAATTATACACACAAATATAAATATATA [CACACA_site2843],8.93 ± 0.41
17,AATTATATATAACGTAGTACATATTATAAACCACGT [XGTACX_site8816],8.96 ± 0.36
18,TATAATAATAATGATAGTACGTATGAGTTCAAGAAA [XGTACX_site4918],8.9 ± 0.52
19,TTGTTATTCCACCGTTGTACAGTTATATACATACAC [XGTACX_site8296],9.05 ± 0.52

row,Sequence,gcPBM binding intensity (ln)
1,TGTCATAAAACCGTTTGTACATATTAATAGACACCT [XGTACX_site4520],8.77 ± 0.42
2,ATATTCCTTTAATATTGTACTATTTTTTTCCTTATA [XGTACX_site8659],8.81 ± 0.51
3,TATGTACAAATATGTACACACACACCGATATATATA [CACACA_site4487],9.56 ± 0.26
4,ACTAATAACAAAAGCTTGCACTTTTTTTTTCCTAAT,8.56 ± 0.52
5,TGTATCCACATATGTACACACATATATCTGTATATG [CACACA_site5668],9.26 ± 0.37
6,TATAATTTTCTTAGTAGTACATTTTAAATCTACTAC [XGTACX_site2621],8.59 ± 0.57
7,AAAAAAAAAAAAAAAAGTACAAAAATTATATTAAGA [XGTACX_site4255],8.43 ± 0.64
8,ATATAAGATTACAAAAATTATGTGTAAATATTTAAT [XGTACX_negctrl_site448],8.71 ± 0.42
9,AAAAAAATTACATATCCATTTTAACATAATAAATAG [GTGCAC_negctrl_site618],8.33 ± 0.45
10,TTTTTGCAAAAAGAAATAATTTTATTTTAGTTCGGA [CACACA_negctrl_site1718],8.19 ± 0.45
11,ATCTATGGGTAGTATACACACTGTATATTTAGGAAT [CACACA_site5569],8.88 ± 0.49
12,ATTCTATTCTCCTTCACACACAAAAATATTTCATCA [CACACA_site2360],9.16 ± 0.52
13,TTACGAATAAAACAGTGTACATTGAATTTCTATGAG [XGTACX_site4771],8.66 ± 0.47
14,TCCATGCAGAAACACACACACAAAAAAAAATTCTTT [CACACA_site4099],9.56 ± 0.45
15,TCTTACAAAAAAAAAAAAAAATAAAATAAAATATAT [CACACA_negctrl_site1575],8.35 ± 0.47
16,AAGGAGATAATTTATTGTACATATAATAAATGAACA [XGTACX_site6252],8.72 ± 0.51
17,TTAATATTATGTTAAAGTACTTTATATATATATAAT [XGTACX_site2646],8.57 ± 0.3
18,ATCTTATATATACGTTGTACTACAGGATATGTCATA [XGTACX_site5734],8.95 ± 0.38
